Measurements: PubChem BioAssay AID1508624 (National Center for Advancing Translational Sciences (NCATS), 2021)
Out of some 48,000 compounds screened, about 120 (0.25%) were called active. Not shown: some 4% with an inconclusive outcome. The call rests on the fitted dose curve; in most records, active means well fitted activation curve with a large enough effect; inconclusive means small, poorly fitted or top-dose-only effect, or another doubt; inactive means no such curve, though single readings can be large or run the other way. The list shows a part of the results.

Experiment: Primary qHTS for Identification of Small Molecule Activators of Huntingtin-Antisense Promoter Activity; further: nearly all actives have a fitted effect of over 55% in size
Conditions: HEK293 HTT-AS promoter firefly luciferase reporter (activity 0% = vehicle and -100% = no light), 24 h; series mostly up to 57.5 µM; activity change, positive = activation: at the top concentration
Procedure, shortened: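 HEK293 Fluc reporter, 2,500 cells/well, 24 h pre-culture; cpds up to 57.5 uM final, 24 h 37 degrees C; Dual-Glo, 10 min RT; normalized vehicle = 0%, zero RLU = -100%.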

Activity change, positive = activation, inactive:
O=C(Cn1ncc2c3ccccc3n(Cc3ccc(F)cc3)c2c1=O)NCc1ccccn1 -17.7%
Cc1ccc(SCC(=O)Nc2ccc3oc(-c4cccc(Cl)c4)nc3c2)cc1 6.88%
O=C(NCc1ccccc1)C(=O)Nc1c2c(nn1-c1ccccc1)CSC2 -53.3%
COc1ccc(OC)c(CNCc2c(C(=O)O)n(Cc3cccc(F)c3)c3cc(OC)ccc23)c1 -30%
Cc1ccc(C(c2c(O)cc(C)n(Cc3ccco3)c2=O)N2CCC(C)CC2)cc1 (stereo unspecified) 9.32%
COc1ccc2c(c1)c1c(c(=O)n(-c3cccc(C)c3)c(=O)n1Cc1cccc(Cl)c1)n2C -20.8%
O=C(c1cc2c(=O)oc3ccccc3c2s1)N1CCN(c2ccccc2)CC1 2.96%
Cc1ccc(-n2nc(C)c3c(C)cc(=O)n(CC(=O)Nc4cccc(C)c4C)c32)cc1 -14.9%
O=C(Nc1cc2c(cc1C(=O)c1ccccc1Br)OCCO2)c1cccc(Cl)c1 -3.35%
COc1ccccc1CNc1ncnc2c1cnn2-c1ccc(C)cc1 -33.9%
CC1(C)OC2=C(C(=O)c3ccccc3C2=O)[C@H](NCc2ccccc2)[C@H]1O -92.6%
COc1ccc(-c2nn(-c3ccccc3)cc2C2NC(=O)NC(C)=C2C(=O)OC(C)C)cc1OC (stereo unspecified) -11.3%
Cc1ccc(-c2noc(-c3nnn(-c4cccc(C(F)(F)F)c4)c3N)n2)cc1 -1.74%
COc1ccc(N2C(=O)CSC23C(=O)N(Cc2cccc(F)c2)c2ccccc23)cc1Cl (stereo unspecified) -37.6%
O=S(=O)(c1ccc2nc(N3CCN(c4ccccc4F)CC3)ccc2c1)N1CCCCC1 -20.6%
COCCNC(=O)CCCn1c(SCC(=O)NCc2ccc(C)cc2)nc2c(sc3ccccc32)c1=O -1.38%
CCC(C)NC(=O)c1sc2nc(C)c(C(=O)Nc3ccc(C)cc3C)c(-c3ccc(NC(C)=O)cc3)c2c1N (stereo unspecified) -20.5%
O=C(O)c1ccc(Cn2c(SCc3ccc(F)cc3)nc3ccncc32)cc1 0.121%
COCCNc1ccc2cc(S(=O)(=O)N3CCCCC3)ccc2n1 -9.89%
Cc1ccc2nc(NC(=O)CSc3nccn3Cc3ccc(F)cc3)sc2c1 -12.9%
CCc1ccc(NS(=O)(=O)c2[nH]ncc2C(=O)OC)cc1 -6.66%
Cc1ccccc1Cn1c(=O)n(-c2ccc(Cl)cc2)c(=O)c2c3c(sc21)CCCC3 -4.27%
CC(C)NC(=O)CN1C(=O)CCn2nc(-c3cn(C)c4ccccc34)cc21 4.33%
COc1ccc(Cn2c(C(=O)O)c(CNCc3ccc(SC)cc3)c3ccc(OC)cc32)cc1 -57.9%
COc1ccc(OC)c(S(=O)(=O)NCC(c2cccs2)S(=O)(=O)c2ccc(F)cc2)c1 (stereo unspecified) -32.7%
Cc1ccccc1NC(=O)c1sc2nc3c(cc2c1N)CN(Cc1ccccc1)CC3 -29.3%
